In PubChem BioAssay AID504332 (National Center for Advancing Translational Sciences (NCATS), 2011):
About 31,000 (8.9%) of roughly 350,000 compounds were called active. This list was built around the results that the source calls inconclusive (neither active nor inactive); the mix of calls is not that of the screen. Calls come from the whole dose curve; as a rule, active = well fitted inhibition curve with a large enough effect; inconclusive = small, poorly fitted or top-dose-only effect; inactive = no such curve, though single readings can be large or run the other way. Potencies of inconclusive entries are doubtful fits and often do not repeat.

Each molecule was assayed against Histone-lysine N-methyltransferase EHMT2 (Homo sapiens) (UniProt Q96KQ7) (assay: qHTS Assay for Inhibitors of Histone Lysine Methyltransferase G9a). Details: G9a H3K9 monomethylation, AlphaScreen, 2 h; activity, negative = inhibition: at 59 µM (top of the series) unless noted.
In short: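 Quantitative HTS format: methyltransferase activity on a biotin-tagged H3K9 peptide is measured by AlphaScreen, using a rabbit anti-monomethyl-H3K9 antibody with streptavidin donor and anti-IgG acceptor beads. Final levels are 20 nM enzyme, 500 nM peptide, 20 uM SAM; 2 h RT.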
% is set by controls: 0 for no effect and ±100 for the full control effect; potency is the fitted concentration of half-maximal effect; tags give direction and shape of the fitted curve.
Note: nearly all actives have a fitted effect of over 75% in size.

Sequence of UniProt Q96KQ7 (Q96KQ7 whole entry, looked up): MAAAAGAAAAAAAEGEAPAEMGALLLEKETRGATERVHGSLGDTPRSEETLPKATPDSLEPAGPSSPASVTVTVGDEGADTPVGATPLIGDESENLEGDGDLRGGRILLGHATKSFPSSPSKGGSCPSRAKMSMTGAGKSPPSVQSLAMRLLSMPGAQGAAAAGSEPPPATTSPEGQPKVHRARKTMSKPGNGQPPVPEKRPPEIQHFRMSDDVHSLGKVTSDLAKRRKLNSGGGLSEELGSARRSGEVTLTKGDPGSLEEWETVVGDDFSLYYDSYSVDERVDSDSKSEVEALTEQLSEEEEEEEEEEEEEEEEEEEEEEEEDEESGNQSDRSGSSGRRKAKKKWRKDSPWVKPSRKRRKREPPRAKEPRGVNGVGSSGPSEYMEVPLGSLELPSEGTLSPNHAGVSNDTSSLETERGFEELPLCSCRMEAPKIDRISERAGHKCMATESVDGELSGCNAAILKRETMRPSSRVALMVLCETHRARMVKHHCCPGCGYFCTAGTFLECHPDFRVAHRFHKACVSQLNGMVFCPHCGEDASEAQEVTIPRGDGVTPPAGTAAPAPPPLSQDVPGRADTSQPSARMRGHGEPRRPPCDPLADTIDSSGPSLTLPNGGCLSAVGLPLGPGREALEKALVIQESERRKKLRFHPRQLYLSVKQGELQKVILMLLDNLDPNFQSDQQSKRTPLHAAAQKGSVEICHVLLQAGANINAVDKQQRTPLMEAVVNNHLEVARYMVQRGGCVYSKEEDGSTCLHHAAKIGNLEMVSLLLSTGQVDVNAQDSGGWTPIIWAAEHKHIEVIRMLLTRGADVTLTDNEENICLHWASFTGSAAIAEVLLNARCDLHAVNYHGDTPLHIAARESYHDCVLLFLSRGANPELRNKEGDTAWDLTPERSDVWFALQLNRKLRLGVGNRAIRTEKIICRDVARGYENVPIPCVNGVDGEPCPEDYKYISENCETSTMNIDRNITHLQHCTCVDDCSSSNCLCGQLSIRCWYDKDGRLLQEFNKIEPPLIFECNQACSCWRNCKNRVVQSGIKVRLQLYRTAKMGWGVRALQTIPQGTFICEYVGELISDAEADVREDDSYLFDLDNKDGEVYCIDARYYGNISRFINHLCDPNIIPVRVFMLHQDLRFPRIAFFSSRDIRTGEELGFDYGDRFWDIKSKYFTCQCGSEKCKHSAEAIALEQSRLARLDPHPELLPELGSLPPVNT

| SMILES | Potency | activity, negative = inhibition |
| --- | --- | --- |
| c1ccc(-n2nnnc2Sc2n[nH]c(-c3ccncc3)n2)cc1 | inconclusive: 2.51 µM [inhibitor, partial curve, poor fit] | – |
| CC1=Nc2cc(C(=O)NC3CCC(C)CC3)ccc2Sc2c(C)ccc(C)c21 (stereo not given) | inconclusive: 25.1 µM [inhibitor, partial curve, poor fit] | – |
| O=C(CN1CCN(c2ccc(O)cc2)CC1)Nc1ccccc1C(=O)NCCc1ccccc1 | inconclusive: 1.58 µM [inhibitor, partial curve, poor fit] | – |
| CC(NC(=O)c1cc2sccc2n1C)c1ccc2c(c1)OCCO2 (stereo not given) | – | inconclusive: -54.9% [inhibitor] [at 12.7 µM] |
| O=C(OCc1nc2scc(-c3ccccc3)c2c(=O)[nH]1)c1ccco1 | inconclusive: 89.1 µM [inhibitor, partial curve, poor fit] | – |
| COc1cccc(NC(=O)CN(C)C(=O)c2cc(-c3ccco3)nc3ccccc23)c1 | active: 50.1 µM | – |
| CCS(=O)(=O)N1CCN(Cc2nc3ccccc3c(=O)[nH]2)CC1 | inconclusive: 89.1 µM [inhibitor, single point] | – |
| O=C(CN1C(=O)NC(Cc2ccccc2)C1=O)NC(=O)NC1CCCCC1 (stereo not given) | inconclusive: 22.4 µM [inhibitor, single point] | – |
| CNC[C@H](Cc1ccccc1)NC[C@@H](Cc1cccc2ccccc12)NCCc1ccc(C)cc1 | inconclusive: 50.1 µM [inhibitor, partial curve, poor fit] | – |
| O=C(CN1C(=O)NC2(CCCC2)C1=O)NNC(=O)c1ccc(Br)cc1 | – | inactive: 4.31% [at 102 µM] |
| COc1cc(NC(=O)c2cccs2)c(C(=O)OCC(=O)c2cc(C)n(-c3ccc(F)cc3)c2C)cc1OC | inconclusive: 3.16 µM [inhibitor, single point] | – |
| COc1ccc(CNc2nc3c(c(=O)n(Cc4ccc(F)cc4)c(=O)n3C)n2C)cc1 | – | inconclusive: -58.7% [inhibitor] |
| CC(=O)O[C@H]1C[C@@H]2CC[C@@H]3[C@H](CC[C@@]4(C)[C@H]3C[C@H]([N+]3(C)CCCCC3)[C@@H]4OC(C)=O)[C@@]2(C)C[C@@H]1[N+]1(C)CCCCC1 | – | inactive: 4.59% |
| Cn1c(=O)c([N+](=O)[O-])c(N2CCN(Cc3ccc4c(c3)OCO4)CC2)c2ccccc21 | – | inconclusive: -56.1% [inhibitor] |
| COc1ccc(-c2cn3nc(N4CCC(C(=O)NCc5cccc(Cl)c5)CC4)sc3n2)cc1 | – | inactive: 4.99% |
| C=CCn1c(=O)/c(=C2/Sc3cc(OC)ccc3N2C)s/c1=C1\C(=O)N(CC)C(=S)N1C | – | inconclusive: -63.5% [inhibitor] [at 12.7 µM] |
| CN(C)C1C(=O)C(C(N)=O)C(=O)C2(O)C(=O)C3C(=O)c4c(O)ccc(Cl)c4C(O)C3CC12 (stereo not given) | active: 15.8 µM | – |
| CC1CCc2c(sc(NC(=O)c3ccc(Cn4cc(Br)cn4)o3)c2C(N)=O)C1 (stereo not given) | inconclusive: 35.5 µM [inhibitor, single point] | – |
| COc1ccc(NS(=O)(=O)c2cc(N)ccc2N2CCOCC2)cc1 | active: 15.8 µM | – |
| O=C(Nc1ccc(NC(=O)C2CC2)nc1)c1ccccn1 | active: 31.6 µM | – |

| SMILES | Potency | activity, negative = inhibition |
| --- | --- | --- |
| CCOc1ccccc1CNC(=O)C1CCN(C(=O)N2CCOc3ccc(Cl)cc32)CC1 | inconclusive: 22.4 µM [inhibitor, partial curve, poor fit] | – |
| COc1ccc(NC(=O)c2ccc3c(c2)N(Cc2cccc(Cl)c2)C(=O)c2ccccc2S3(=O)=O)cc1Cl | – | inactive: -6.04% |
| Cc1sc(NC(=O)c2ccccc2)c(C(=O)c2ccccc2)c1C | active: 3.55 µM | – |
| CCc1nc(SCC(=O)c2ccc(C)c(C)c2)n[nH]1 | active: 6.31 µM | – |
| CCOC(=O)c1cnc(-n2nc(C)cc2C)nc1Nc1ccc(O)cc1 | inconclusive: 79.4 µM [inhibitor, single point] | – |
| O=C(CSc1nc(Nc2ccccc2)nc(N2CCOCC2)n1)Nc1cc(Cl)ccc1O | active: 50.1 µM | – |
| Cc1cccc(N2CCN(c3nc4ccc(C(=O)c5ccccc5)cc4n4cnnc34)CC2C)c1 (stereo not given) | inconclusive: 7.94 µM [inhibitor, partial curve, poor fit] | – |
| CSc1cccc(Nc2ccc(S(=O)(=O)N3CCOCC3)cc2[N+](=O)[O-])c1 | inconclusive: 7.08 µM [inhibitor, single point] | – |
| Cc1cc2cc(CNC(=O)Nc3ccccc3)ccc2[nH]1 | inconclusive: 89.1 µM [inhibitor, partial curve, poor fit] | – |
| C[C@@H]1O[C@H](O[C@@H]2[C@@H](Oc3cc(O)c4c(c3)O[C@H](c3ccc(O)cc3)CC4=O)O[C@@H](CO)[C@@H](O)[C@H]2O)[C@@H](O)[C@H](O)[C@@H]1O | – | inactive: 31.4% [at 21.5 µM] |
| CCCCN(CC)CCNC(=O)c1cc2c(=O)[nH]c3ccc(C)cc3c2s1 | inconclusive: 89.1 µM [inhibitor, partial curve, poor fit] | – |
| CCCC(C(=O)NCC1CCCO1)N(Cc1ccco1)C(=O)CNS(=O)(=O)c1ccccc1 (stereo not given) | – | inactive: -0.506% [at 102 µM] |
| O=C(c1cccc(S(=O)(=O)N2CCCC2)c1)N1CCN(c2ncccn2)CC1 | inconclusive: 0.708 µM [inhibitor, partial curve, poor fit] | – |
| COc1cc(CC(=O)OCC(=O)Nc2ccc3c(c2)OCO3)cc(OC)c1OC | inconclusive: 17.8 µM [inhibitor, partial curve, poor fit] | – |
| O=C(CSc1nnnn1C1CC1)N1CCN(c2ccccc2F)CC1 | inconclusive: 7.94 µM [inhibitor, full curve, poor fit] | – |
| Cc1ccc(C(C)C)cc1OCCn1cncn1 | active: 11.2 µM | – |
| CCOC(=O)c1c(NC(=O)CSc2cn(CCNC(=O)c3ccc(OC)c(OC)c3)c3ccccc23)sc2c1CCC2 | – | inactive: 2.14% |
| CN(C)c1ccc(C(C(=O)NC(C)(C)C)N(C(=O)c2csnn2)C2CC2)cc1 (stereo not given) | – | inconclusive: -61.5% [inhibitor] |
| COc1ccc(NC(=O)CCCC(=O)OCC(=O)c2cccc(OC)c2)cc1 | – | inactive: 13.2% [at 0.0925 µM] |
| Cc1ccc(O)c(NC(=O)COc2cc(C)ccc2C)c1 | inconclusive: 5.01 µM [inhibitor, partial curve, poor fit] | – |
